Test results reported in article PMC4336329 (PLoS ONE, 2015).
About 14,000 (4.5%) of roughly 310,000 compounds showed an effect of 50% or more. The effect is printed as a negative number. This is one part of the list.

Molecular target: human ether-à-go-go-related gene (hERG) potassium channel (human, UniProt Q12809)
Test: primary screen, population patch clamp on CHO cells stably expressing hERG
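Also: peak tail current of the secondary pulse compared with the same well before compound.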

human ether-à-go-go-related gene (hERG) potassium channel, sequence (Q12809 whole entry, looked up): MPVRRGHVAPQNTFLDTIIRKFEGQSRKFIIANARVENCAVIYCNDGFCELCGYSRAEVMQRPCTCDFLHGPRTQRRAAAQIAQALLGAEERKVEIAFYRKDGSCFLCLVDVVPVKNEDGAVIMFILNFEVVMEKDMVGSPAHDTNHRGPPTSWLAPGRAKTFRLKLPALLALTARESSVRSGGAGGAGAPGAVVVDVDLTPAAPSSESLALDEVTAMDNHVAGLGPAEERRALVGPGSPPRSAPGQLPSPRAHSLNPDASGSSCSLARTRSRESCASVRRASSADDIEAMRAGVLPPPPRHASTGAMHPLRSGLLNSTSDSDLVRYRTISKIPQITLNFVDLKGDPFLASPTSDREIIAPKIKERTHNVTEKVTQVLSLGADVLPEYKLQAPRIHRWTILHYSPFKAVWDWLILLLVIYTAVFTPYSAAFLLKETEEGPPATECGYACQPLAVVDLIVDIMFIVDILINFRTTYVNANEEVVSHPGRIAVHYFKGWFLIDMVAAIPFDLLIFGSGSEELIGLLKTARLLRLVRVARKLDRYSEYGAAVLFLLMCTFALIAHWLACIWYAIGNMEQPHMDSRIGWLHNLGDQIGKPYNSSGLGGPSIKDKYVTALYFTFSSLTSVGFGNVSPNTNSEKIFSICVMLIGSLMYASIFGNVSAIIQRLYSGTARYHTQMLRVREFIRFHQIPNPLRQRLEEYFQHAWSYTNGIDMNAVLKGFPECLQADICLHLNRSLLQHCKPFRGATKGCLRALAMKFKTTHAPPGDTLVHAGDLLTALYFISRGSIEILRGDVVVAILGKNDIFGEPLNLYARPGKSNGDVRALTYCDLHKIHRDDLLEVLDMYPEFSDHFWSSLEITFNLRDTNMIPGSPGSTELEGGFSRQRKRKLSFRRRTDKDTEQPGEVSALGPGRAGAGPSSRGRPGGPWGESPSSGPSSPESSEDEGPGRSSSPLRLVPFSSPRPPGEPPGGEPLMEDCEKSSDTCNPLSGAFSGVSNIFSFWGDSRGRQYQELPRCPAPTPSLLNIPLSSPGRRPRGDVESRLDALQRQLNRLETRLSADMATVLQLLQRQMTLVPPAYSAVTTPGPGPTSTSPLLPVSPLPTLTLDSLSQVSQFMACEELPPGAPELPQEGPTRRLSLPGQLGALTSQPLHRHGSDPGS

| Structure (SMILES) | hERG current change (%, negative = inhibition) at 10uM |
| --- | --- |
| O=C1/C(=C\c2ccco2)SC(=S)N1C1CCS(=O)(=O)C1 (stereo not drawn) | 6.62% |
| CCC(C)N(C(=O)CSc1ccc(NC(C)=O)cc1)C1CCS(=O)(=O)C1 (stereo not drawn) | 47.5% |
| CC1C=CCC2C(=O)N(c3ccccc3OC(=O)c3cccs3)C(=O)C12 (stereo not drawn) | 24.4% |
| CC(=O)Nc1ccc(S(=O)(=O)Oc2cccc(/C=N/N=C3/NC(=O)C(CC(=O)O)S3)c2)cc1 (stereo not drawn) | 20.9% |
| CC1=CN2C(=N)/C(=C/c3ccc(Sc4ccc(Cl)cc4)o3)C(=O)N=C2S1 | 2.57% |
| O=c1[nH]c(NCCO)nc2c1C1(CCCCC1)Cc1ccccc1-2 | 7.03% |
| O=C(CCCc1ccccc1)Nc1ccnn1C1CCN(Cc2ccc(Cl)cc2)CC1 | -74.8% |
| Cc1ccc(/C(N)=N/OC(=O)COc2ccc(Cl)c(C)c2)cc1 | 10.4% |
| Nc1nc(CSc2nc3ccccc3s2)nc(N2CCOCC2)n1 | 5.71% |
| Cc1nc2ccccc2c(=O)n1/N=C/c1cc(Br)ccc1O | 28.4% |
| O=C(Cn1cnc([N+](=O)[O-])n1)N/N=C/c1ccccc1O | 14.4% |
| O=C(C1CCCCN1S(=O)(=O)c1ccccc1[N+](=O)[O-])N1CCCCC1 (stereo not drawn) | 19.9% |
| Cc1nn(C)cc1/C=N/NC(=O)C1(O)c2ccccc2-c2ccccc21 | 0.708% |
| CCc1cccc(C)c1NC(=O)CCNC(=O)c1cccc(C)c1 | 12.6% |
| CC1Cc2ccccc2N1S(=O)(=O)c1cccc(C(=O)OCC(=O)NC2CCS(=O)(=O)C2)c1 (stereo not drawn) | -34.8% |
| c1ccc(Cc2cc(-c3ccccc3)on2)cc1 | 4.06% |
| CC(C)N(CCn1c(SCC(=O)Nc2cccnc2Cl)nc2ccccc2c1=O)C(C)C | -69.7% |
| Cc1ccc(N2CC(C(=O)N3CCCc4ccccc43)CC2=O)cc1 (stereo not drawn) | -18.8% |
| COc1cc(C(N)=O)cc(Br)c1OCc1ccccc1 | 2.25% |
| Cc1nc2ccccc2c(=O)n1/N=C/c1ccccc1F | 6.07% |
| CN1CCN(C2CC(=O)N(c3ccc4c(c3)OCCO4)C2=O)CC1.Cl (stereo not drawn) | 14.1% |

| Structure (SMILES) | hERG current change (%, negative = inhibition) at 10uM |
| --- | --- |
| N#Cc1cccc(NC(=O)CCNC(=O)c2ccccc2Cl)c1 | 21.8% |
| COC(=O)CNC(=O)COC(=O)/C=C/c1cccs1 | 1.93% |
| COc1ccc(OC)c(NC(=O)COC(=O)/C=C/c2ccc(Cl)cc2)c1 | -5.45% |
| COc1ccc(SC[C@H](Cc2ccccc2)N2CC[C@@H](C(C)(C)C)CCC2=O)cc1 | 9.92% |
| CC(=O)Nc1cccc(NC(=O)c2cc(-c3cccnc3)nc3ccc(Cl)cc23)c1 | 12.5% |
| CC1Cc2ccccc2N1C(=O)c1cnsn1 (stereo not drawn) | 3.84% |
| O=C(COc1ccc(S(=O)(=O)N2CCCCC2)cc1)N1CCOCC1 | 3.54% |
| CC(=O)N1CCN(C2=NC(=O)/C(=C/c3ccc(OS(=O)(=O)c4ccccc4)cc3)S2)CC1 | -69.6% |
| O=C(CN1C(=O)NC(Cc2c[nH]c3ccccc23)C1=O)Nc1cccc(S(=O)(=O)N2CCCC2)c1 (stereo not drawn) | 1.65% |
| CC(C)(C)NC(=O)C(c1ccccc1)N(C(=O)c1ccco1)C1CC1 (stereo not drawn) | -8.39% |
| COc1c(C)cccc1C(=O)NC(=S)Nc1ccccc1N1CCCC1 | 15.6% |
| CCc1ccc(NC(=O)C2CCN(S(=O)(=O)c3cccs3)CC2)cc1 | -42.1% |
| O=C(NCc1ccc(N2CCCC2=O)cc1)c1cc(COc2c(F)cccc2F)on1 | 4.12% |
| CCC(=O)OCCn1c(=O)c2ccccc2c2ccccc2c1=O | 1.82% |
| CCc1nn2c(=O)cc(CSCC(=O)Nc3ccccc3F)nc2s1 | 11.3% |
| CCCNC(=O)Cn1cnc2sc(C(=O)NCCN(CC)CC)c(C)c2c1=O | -1.05% |
| Cn1c(O)c(C=NCCN2CCN(C(=O)c3ccccc3)CC2)c(=O)n(C)c1=O | -16.6% |
| COC(=O)C1=C(c2ccccc2)C[C@@H]2CC[C@H]1N2C(=O)N1CCCC1 | 6.66% |
| Cc1cccc(NC(=S)Nn2cnnc2)c1C | 11.3% |
| CCC(=O)c1ccc(OCC(=O)N(Cc2nnc(-c3ccccc3Cl)o2)C2CC2)cc1 | -67.2% |
| COc1ccc(OCc2nnc(SCC(=O)N3CCOCC3)o2)cc1 | 12.4% |
